± gives the standard deviation. The entries are a selection whose mix differs from that of the whole data set.
Tested on: MIWI (PIWIL1) piRISC loaded with L1MC piRNA (30 nt)
Test: pre-steady-state target cleavage rate (min^-1); MIWI and MILI are mouse PIWI proteins and EfPiwi is from a freshwater sponge; tags in brackets are library labels; higher = faster piRNA-guided slicing of the target
Conditions: guide: L1MC piRNA 5'p-UAACUAAAUACUAUGCAAGCUGUAGGUCCU
Summary of the method: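 Cleave-'n-Seq measured uncleaved targets by sequencing after a transcribed, DNA-blocked target RNA library […] was mixed with 1 nM active affinity-purified piRISC holding one synthetic guide, with or without 500 nM GTSF1 partner protein, at 33 °C in HEPES–potassium acetate buffer for 0–8 or 0–960 min. Counts were normalised to depth and to weakly complementary targets, three trials were pooled, and k3 was capped at 0.0001 min^-1. A burst-and-steady-state fit gave the pre-steady-state cleavage rate.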

[1] = auxiliary factor: 500 nM mouse GTSF1
[2] = auxiliary factor: none (no GTSF1)
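Also: 1 nM active piRISC with 0.1 nM target library at 33 °C single turnover.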

UGGAGCUACAGCUUGCAUAGUAUAUAGUUA
pre-steady-state target cleavage rate [1]: 0.742 ± 0.05 | pre-steady-state target cleavage rate [2]: 0.0311 ± 0.0061

UCCACCUAACAGCUUGCAUAGUAUUUAGUUA
pre-steady-state target cleavage rate [1]: 0.616 ± 0.035 | pre-steady-state target cleavage rate [2]: 0.0394 ± 0.0065

UCCUGGAACACCUUGCAUAGUAUAUAGUUA
pre-steady-state target cleavage rate [1]: 0.36 ± 0.048 | pre-steady-state target cleavage rate [2]: 0.00647 ± 0.0026

UGGACCUACAGCUUGCUUAGUAUAUAGUUA
pre-steady-state target cleavage rate [1]: 0.842 ± 0.063 | pre-steady-state target cleavage rate [2]: 0.0175 ± 0.0052

UCCACCAACAGCUAGCAUAGUAUUUAGUUA
pre-steady-state target cleavage rate [1]: 0.97 ± 0.033 | pre-steady-state target cleavage rate [2]: 0.0197 ± 0.0045

UCCUGGUAGAGCUUGCAUAGUUUUUAGUUA
pre-steady-state target cleavage rate [1]: 0.115 ± 0.015 | pre-steady-state target cleavage rate [2]: 0.024 ± 0.0058

UCGACCUACAGCUUGCAUAGAAUUUAGAAA
pre-steady-state target cleavage rate [1]: 0.369 ± 0.048 | pre-steady-state target cleavage rate [2]: 0.00627 ± 0.0024

UCCUGGAACAGCUCUGCAUAGUAUUUAGUUA
pre-steady-state target cleavage rate [1]: 1.18 ± 0.07 | pre-steady-state target cleavage rate [2]: 0.024 ± 0.0067

UCCUGGAUCACCUUGCAUAGUAUUAAGUUA
pre-steady-state target cleavage rate [1]: 0.227 ± 0.047 | pre-steady-state target cleavage rate [2]: 0.00474 ± 0.0029

UCCUGGAUGAGCUUGCAUAGUGUUUAGUUA
pre-steady-state target cleavage rate [1]: 0.708 ± 0.06 | pre-steady-state target cleavage rate [2]: 0.0494 ± 0.01

UCCUGGAUCAGCUUGCAUAGUAUUCAGUUA
pre-steady-state target cleavage rate [1]: 0.509 ± 0.046 | pre-steady-state target cleavage rate [2]: 0.0165 ± 0.0045

UGGACCUACAGCUUGCAUAGUCAUUUAGUUA
pre-steady-state target cleavage rate [1]: 0.0177 ± 0.0047 | pre-steady-state target cleavage rate [2]: 0.00444 ± 0.0017

UCCUGCUACAGUCUUGCAUAGUAUUUAGUUA
pre-steady-state target cleavage rate [1]: 0.643 ± 0.033 | pre-steady-state target cleavage rate [2]: 0.0274 ± 0.005

AGGACCUACAGCUUGCAGAGUAUUUAGUUA
pre-steady-state target cleavage rate [1]: 0.984 ± 0.07 | pre-steady-state target cleavage rate [2]: 0.045 ± 0.012

AGGACCUACAGCUUGCAUCGUAUUUAGUUA
pre-steady-state target cleavage rate [1]: 0.462 ± 0.033 | pre-steady-state target cleavage rate [2]: 0.0314 ± 0.0062

AGGACCUACUCGUUGCAUAGUAUUUACAAA
pre-steady-state target cleavage rate [1]: 0.235 ± 0.037 | pre-steady-state target cleavage rate [2]: 0.00275 ± 0.0017

UCCACCUACAGCUUGCAUUCUAUUUAGUUA
pre-steady-state target cleavage rate [1]: 0.246 ± 0.024 | pre-steady-state target cleavage rate [2]: 0.00544 ± 0.0023

UCCUGGAACAGCUUGCAUAGUAUUUUGAAA
pre-steady-state target cleavage rate [1]: 0.266 ± 0.041 | pre-steady-state target cleavage rate [2]: 0.00717 ± 0.0038

UCCUCCUACAGCUUGCAUAGUAUUAAGAUA
pre-steady-state target cleavage rate [1]: 0.255 ± 0.045 | pre-steady-state target cleavage rate [2]: 0.00327 ± 0.0025

UCCUGGAUGAGCUUGCAUAGUAUUUAGUUU [g2:g21:cont:t1U]
pre-steady-state target cleavage rate [1]: 1.05 ± 0.05 | pre-steady-state target cleavage rate [2]: 0.0579 ± 0.015

UCCACCUUCAGCUUGCAUAGUAUUUACUUA
pre-steady-state target cleavage rate [1]: 0.345 ± 0.044 | pre-steady-state target cleavage rate [2]: 0.0207 ± 0.0033

UCGAGCUACAGCUUGCAUAGUAUUUACAAA
pre-steady-state target cleavage rate [1]: 0.303 ± 0.04 | pre-steady-state target cleavage rate [2]: 0.00354 ± 0.0025

UCGACCUACAGGAUGCAUAGUAUUUAGUUA
pre-steady-state target cleavage rate [1]: 0.908 ± 0.065 | pre-steady-state target cleavage rate [2]: 0.0193 ± 0.004
